This is one part of the list. No stated cut-off is given here; in the data, active = 3.2 or more and inactive = the rest. Most of these values are background signal.
Each binder was assayed against SHP2 C-SH2 domain E139D (assay: enrichment score (SH2-bound / input frequency) (ratio); bacterial display of known human phosphotyrosine sites (pTyr-Var adds point mutants) read by sequencing; higher = stronger binding; tyrosines were phosphorylated by kinases first). Settings: peptide library: Human pTyr.
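Further: displayed peptides selected on beads carrying the immobilized SH2 domain, with library peptides lacking any tyrosine serving as negative controls.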

Enrichment score, inactive:
KKEDALLYQSKGAND [EMD_HUMAN_85_YA] 0.934
SKGYNDDYYEESYFT [EMD_HUMAN_94] 0.959
KGYNDDYYEESYFTT [EMD_HUMAN_95] 1.11
KGANDDAYEESAFTT [EMD_HUMAN_95_YA] 0.831
KLLLLRGYAFNHSAD [ACTR2_HUMAN_202] 1.19
DDAAEESYFTTRTAG [EMD_HUMAN_99_YA] 0.898
TAIQAAGYPDKVVIG [ENOB_HUMAN_236] 0.738
EAIDKAGYTEKIVIG [ENOG_HUMAN_236] 0.776
MHSQGSDYLDIGNNP [ACVL1_HUMAN_361] 0.502
TYVDPHTYEDPNQAV [EPHA2_HUMAN_594] 0.682
AGEFGEVYKGMLKTS [EPHA2_HUMAN_628] 0.744
KYLANMNYVHRDLAA [EPHA2_HUMAN_735] 0.985
KALANMNYVHRDLAA [EPHA2_HUMAN_735_YA] 0.635
EDDPEATYTTSGGKI [EPHA2_HUMAN_772] 0.842
KLPGLRTYVDPHTYE [EPHA3_HUMAN_596] 0.627
KLPGLRTYVDPHTAE [EPHA3_HUMAN_596_YA] 1.18
EDDPEAAYTTRGGKI [EPHA3_HUMAN_779] 0.787
TYVDPFTYEDPNQAV [EPHA4_HUMAN_602] 0.605

These binders were tested against SHP2 C-SH2 domain wild-type in the same assay as above. Settings: peptide library: Human pTyr.

Enrichment score, inactive:
KKEDALLYQSKGAND [EMD_HUMAN_85_YA] 0.811
SKGYNDDYYEESYFT [EMD_HUMAN_94] 1.26
KGYNDDYYEESYFTT [EMD_HUMAN_95] 0.992
KGANDDAYEESAFTT [EMD_HUMAN_95_YA] 0.56
KLLLLRGYAFNHSAD [ACTR2_HUMAN_202] 1.08
DDAAEESYFTTRTAG [EMD_HUMAN_99_YA] 0.706
TAIQAAGYPDKVVIG [ENOB_HUMAN_236] 0.579
EAIDKAGYTEKIVIG [ENOG_HUMAN_236] 0.634
MHSQGSDYLDIGNNP [ACVL1_HUMAN_361] 0.455
TYVDPHTYEDPNQAV [EPHA2_HUMAN_594] 0.83
AGEFGEVYKGMLKTS [EPHA2_HUMAN_628] 0.774
KYLANMNYVHRDLAA [EPHA2_HUMAN_735] 0.922
KALANMNYVHRDLAA [EPHA2_HUMAN_735_YA] 0.486
EDDPEATYTTSGGKI [EPHA2_HUMAN_772] 0.604
KLPGLRTYVDPHTYE [EPHA3_HUMAN_596] 0.614
KLPGLRTYVDPHTAE [EPHA3_HUMAN_596_YA] 0.948
EDDPEAAYTTRGGKI [EPHA3_HUMAN_779] 0.607
TYVDPFTYEDPNQAV [EPHA4_HUMAN_602] 0.609

Each binder was assayed against SHP2 N-SH2 domain L43F in the same assay as above. Settings: peptide library: Human pTyr.

Enrichment score, inactive:
KKEDALLYQSKGAND [EMD_HUMAN_85_YA] 0.805
SKGYNDDYYEESYFT [EMD_HUMAN_94] 0.975
KGYNDDYYEESYFTT [EMD_HUMAN_95] 1.27
KGANDDAYEESAFTT [EMD_HUMAN_95_YA] 0.935
KLLLLRGYAFNHSAD [ACTR2_HUMAN_202] 1.16
DDAAEESYFTTRTAG [EMD_HUMAN_99_YA] 0.995
TAIQAAGYPDKVVIG [ENOB_HUMAN_236] 0.604
EAIDKAGYTEKIVIG [ENOG_HUMAN_236] 0.602
MHSQGSDYLDIGNNP [ACVL1_HUMAN_361] 0.586
TYVDPHTYEDPNQAV [EPHA2_HUMAN_594] 0.852
AGEFGEVYKGMLKTS [EPHA2_HUMAN_628] 0.561
KYLANMNYVHRDLAA [EPHA2_HUMAN_735] 1.37
KALANMNYVHRDLAA [EPHA2_HUMAN_735_YA] 0.419
EDDPEATYTTSGGKI [EPHA2_HUMAN_772] 0.756
KLPGLRTYVDPHTYE [EPHA3_HUMAN_596] 0.553
KLPGLRTYVDPHTAE [EPHA3_HUMAN_596_YA] 1.14
EDDPEAAYTTRGGKI [EPHA3_HUMAN_779] 0.723
TYVDPFTYEDPNQAV [EPHA4_HUMAN_602] 0.537

These binders were tested against SHP2 N-SH2 domain T42A in the same assay as above. Settings: peptide library: Human pTyr.

Enrichment score, inactive:
KKEDALLYQSKGAND [EMD_HUMAN_85_YA] 0.872
SKGYNDDYYEESYFT [EMD_HUMAN_94] 0.967
KGYNDDYYEESYFTT [EMD_HUMAN_95] 1.02
KGANDDAYEESAFTT [EMD_HUMAN_95_YA] 0.648
KLLLLRGYAFNHSAD [ACTR2_HUMAN_202] 0.996
DDAAEESYFTTRTAG [EMD_HUMAN_99_YA] 0.83
TAIQAAGYPDKVVIG [ENOB_HUMAN_236] 0.673
EAIDKAGYTEKIVIG [ENOG_HUMAN_236] 0.675
MHSQGSDYLDIGNNP [ACVL1_HUMAN_361] 0.526
TYVDPHTYEDPNQAV [EPHA2_HUMAN_594] 0.697
AGEFGEVYKGMLKTS [EPHA2_HUMAN_628] 0.531
KYLANMNYVHRDLAA [EPHA2_HUMAN_735] 1.09
KALANMNYVHRDLAA [EPHA2_HUMAN_735_YA] 0.53
EDDPEATYTTSGGKI [EPHA2_HUMAN_772] 0.836
KLPGLRTYVDPHTYE [EPHA3_HUMAN_596] 0.484
KLPGLRTYVDPHTAE [EPHA3_HUMAN_596_YA] 0.995
EDDPEAAYTTRGGKI [EPHA3_HUMAN_779] 0.645
TYVDPFTYEDPNQAV [EPHA4_HUMAN_602] 0.694

What follows are binders tested against SHP2 N-SH2 domain T52S in the same assay as above. Settings: peptide library: Human pTyr.

Enrichment score, inactive:
KKEDALLYQSKGAND [EMD_HUMAN_85_YA] 0.983
SKGYNDDYYEESYFT [EMD_HUMAN_94] 1
KGYNDDYYEESYFTT [EMD_HUMAN_95] 0.866
KGANDDAYEESAFTT [EMD_HUMAN_95_YA] 0.787
KLLLLRGYAFNHSAD [ACTR2_HUMAN_202] 1.2
DDAAEESYFTTRTAG [EMD_HUMAN_99_YA] 0.998
TAIQAAGYPDKVVIG [ENOB_HUMAN_236] 0.744
EAIDKAGYTEKIVIG [ENOG_HUMAN_236] 0.766
MHSQGSDYLDIGNNP [ACVL1_HUMAN_361] 0.677
TYVDPHTYEDPNQAV [EPHA2_HUMAN_594] 0.805
AGEFGEVYKGMLKTS [EPHA2_HUMAN_628] 0.513
KYLANMNYVHRDLAA [EPHA2_HUMAN_735] 1.01
KALANMNYVHRDLAA [EPHA2_HUMAN_735_YA] 0.53
EDDPEATYTTSGGKI [EPHA2_HUMAN_772] 1.01
KLPGLRTYVDPHTYE [EPHA3_HUMAN_596] 0.727
KLPGLRTYVDPHTAE [EPHA3_HUMAN_596_YA] 1.03
EDDPEAAYTTRGGKI [EPHA3_HUMAN_779] 0.664
TYVDPFTYEDPNQAV [EPHA4_HUMAN_602] 0.828

The binders below were run against SHP2 N-SH2 domain wild-type in the same assay as above. Settings: peptide library: Human pTyr.

Enrichment score, inactive:
KKEDALLYQSKGAND [EMD_HUMAN_85_YA] 0.976
SKGYNDDYYEESYFT [EMD_HUMAN_94] 1.13
KGYNDDYYEESYFTT [EMD_HUMAN_95] 1.15
KGANDDAYEESAFTT [EMD_HUMAN_95_YA] 0.692
KLLLLRGYAFNHSAD [ACTR2_HUMAN_202] 1.28
DDAAEESYFTTRTAG [EMD_HUMAN_99_YA] 0.858
TAIQAAGYPDKVVIG [ENOB_HUMAN_236] 0.917
EAIDKAGYTEKIVIG [ENOG_HUMAN_236] 0.71
MHSQGSDYLDIGNNP [ACVL1_HUMAN_361] 0.584
TYVDPHTYEDPNQAV [EPHA2_HUMAN_594] 0.817
AGEFGEVYKGMLKTS [EPHA2_HUMAN_628] 0.769
KYLANMNYVHRDLAA [EPHA2_HUMAN_735] 1.11
KALANMNYVHRDLAA [EPHA2_HUMAN_735_YA] 0.398
EDDPEATYTTSGGKI [EPHA2_HUMAN_772] 0.842
KLPGLRTYVDPHTYE [EPHA3_HUMAN_596] 0.617
KLPGLRTYVDPHTAE [EPHA3_HUMAN_596_YA] 1.32
EDDPEAAYTTRGGKI [EPHA3_HUMAN_779] 0.689
TYVDPFTYEDPNQAV [EPHA4_HUMAN_602] 0.644
